Measured values reported in the supplement of paper PMC11417369.
This is one part of the list.

Tested on: PfSIP2 AP2 domain 1 (GST-tagged)
Experiment: gcPBM binding intensity (ln(normalized median fluorescence intensity)); higher = stronger DNA binding
Summary of the method: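 Binding of GST-tagged P. falciparum DNA-binding domains, expressed in E. coli and used at about 25 μg on average, was carried out for 1 h in 1× PBS containing 1% milk, 0.2 mg/ml BSA, 0.5% salmon testes DNA and 0.03% Triton X-100. The target was an Agilent 4 × 180k array of primer-extended double-stranded 36-bp intergenic genomic probes plus negative controls, read with Alexa488 anti-GST antibody at 488 nm. Binding intensity is the highest Masliner-normalised natural-log median intensity across replicate spots of either probe orientation.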

Row | Sequence | gcPBM binding intensity (ln)
1 | AAAGGGGAAAATATTATACATATAATAAATCCGTAT [XGTACX_negctrl_site355] | 6.91
2 | AGTAATAAAAGTAGAAGTACAATACTTCAAAGATAT [XGTACX_site8562] | 7.3
3 | GTTCTAAAAGTTAATGCATGTTATAAGTTTCCCTCT [TGCATGCA_site94] | 6.92
4 | TATTTCAAAATATGGGTGCAGTTCTTCATGATATAT [GTGCAC_site9658] | 10.7
5 | ATGTATATATTTACGTGTACATATTCATGTGATATC [XGTACX_site5871] | 7
6 | TTATACTTTGGGTGGTGTACTATATTATGCTTATAA [XGTACX_site1106] | 7.47
7 | TGCTATTTTTTCCTTTTTTTGTATCACAATCATATA [CACACA_negctrl_site1576] | 6.97
8 | ATTAAACATAAATATGCACACATATACATATATTCA [CACACA_site8850] | 7.35
9 | TTTATTTATTAATACACACACACACCCAGACAAAAT [CACACA_site4292] | 7.79
10 | TATCTTTTTACAATAGTGCATATGTTATCATTAATA [GTGCAC_site9489] | 8.59
11 | AGATATATAAATATTACACACTATATATCTATTTAT [CACACA_site6466] | 6.82
12 | ATTTGCCCATTTAATTAACACACAAATGTTTATATT [CACACA_site8145] | 7.28
13 | ATTATATACATTTTAGTGCATTACATAATAATATAA [GTGCAC_site9836] | 9.17
14 | GTATGCATTATATACACACATACATTTATATATTCT [CACACA_site115] | 7.02
15 | TTTCTTTTTTGATGCGTGCACATTTGTTTATTTTTC [GTGCAC_site9792] | 9.67
16 | AAAAAACGCACTCGTACACACATATTTTCTTTCTAA [CACACA_site3089] | 8.76
17 | TTAATTACACAAAAAAGTACTTGATATTGTTTATTA [XGTACX_site3449] | 6.85
18 | ATATAATCAACTGCAAAGGTTTAAAAGGAAAAAATA [CACACA_negctrl_site989] | 6.79
19 | AATATTTACCAGAAAATAAAAATATGTATATATATA [CACACA_negctrl_site351] | 8.24

Row | Sequence | gcPBM binding intensity (ln)
20 | AATATTTATATTTACACACACATAATACATATATGT [CACACA_site33] | 7.08
21 | TTTTTATTCAACAAAAATATCAAACATAATTATAAA [CACACA_negctrl_site616] | 7.05
22 | ATTTTTATGTCTTTCTATAAATCGAAAATATACATA [CACACA_negctrl_site477] | 7.03
23 | TTCCTTTAACCCTGCACACATACATACATTTATATG [CACACA_site3953] | 7.61
24 | ATATACAACTAAAGAACACACATCATTGTTCATTGG [CACACA_site3681] | 6.9
25 | TAAAATAGAAATATATGTACATATATATATGTATAT [XGTACX_site4134] | 7.34
26 | CGATATTCTAAGGATAGTACATAATAAAATAGAGTA [XGTACX_site4224] | 6.92
27 | ATTTATATTTTTTAATGTACATTTATATGTATACAA [XGTACX_site4555] | 6.99
28 | ATTTATGTTATTGTATGTACACAATATAATGTTATT [XGTACX_site5657] | 7.24
29 | ATTCTACACGCACATACACACATATAAATATAAATA [CACACA_site7582] | 7.67
30 | AAAAAAAAATATATATATATATATATATAATAAAAA [CACACA_negctrl_site639] | 7.48
31 | AAAAAAAAAAAATGTGCACACGCGTACAGACAAAAA [CACACA_site2005] | 9.65
32 | TAAAAAGTACATTATTCATGGCCTATTACATTTTTT [GTGCAC_negctrl_site282] | 6.89
33 | ATAATATATATGAAATGTACATAAATTTAATGCGAC [XGTACX_site5394] | 7.5
34 | ACACAAAAATAGTTTTTTATATTGTTAACCTTATAT [XGTACX_negctrl_site123] | 6.9
35 | ATATTTTACATATTTGCACACATATATTTAAATACA [CACACA_site4628] | 7.27
36 | ATGTGCACATGTAGAAGTACTTTTTCTTAAAATACT [XGTACX_site8341] | 9.3
37 | TATGTTTTATATAAGATGCACTTTTGTTATGCTTCA | 8.55
38 | CAAATACACGGACACACACACACAAAAAAAAAAAAA [CACACA_site6385] | 7.33

Row | Sequence | gcPBM binding intensity (ln)
39 | AAATTATTGTAAAATAGTACAGTGAAACATAAAGTT [XGTACX_site589] | 7.07
40 | TAAATACAAGTAAAAAGTACAGAAAAATTATATATA [XGTACX_site1758] | 7.05
41 | TTTATTTTGTTTTCTTGTACATAAATAATTACATAT [XGTACX_site4227] | 7.1
42 | TTTATTTGGACATATACACACTTAAATATGTTTATT [CACACA_site6021] | 6.91
43 | AAGAGAAATGGGCACACACACACATATTATAGATAT [CACACA_site6828] | 7.04
44 | TATAAAAAATTCAATACACACCATATATAAATATAT [CACACA_site6060] | 6.81
45 | TATAATAATTCATAATGTACTTTTATCAAAAAAGTA [XGTACX_site6868] | 6.82
46 | TGAAATGAAAGAACAGCACACATATATATTATATAT [CACACA_site8613] | 7.24
47 | TATATTTTTTAAAAAAGTACAAAGTAATTATTGATT [XGTACX_site2420] | 7.1
48 | GTAGTACATTCTAGAATACACACCTATATATATATA [CACACA_site522] | 9.3
49 | ATATGAAAAACTTCATGTACTTATTATAAAATATAA [XGTACX_site2725] | 6.88
50 | CTTTTTTTTTTGTATTGTACTTTATTTTTACATCGT [XGTACX_site2918] | 7.16
51 | ATTCTAATTTTATGAAACGATTATTTTGAATTCATT [XGTACX_negctrl_site578] | 6.93
52 | ATTTTTAATTTTTTCACACATATATTTAAAATAAAA [CACACA_site4799] | 7.09
53 | GATTACCTTTTTTTTTTTTTTTTTTTTTTTTTTTTC [CACACA_negctrl_site147] | 6.76
54 | ATAAAAAAAAATATATGTACATATATAAATTGATAT [XGTACX_site7409] | 7.24
55 | TTATAGACATATATAGGTACACATATTTTCAATCCC [XGTACX_site8230] | 6.98
56 | ATTTATTAATCATATACACACATATATTTGTATTTA [CACACA_site1336] | 7.05
